Structures are written as SMILES.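 Five compound concentrations were applied to cells in 96-well plates for 48 hours; endpoints were derived by simple linear interpolation of the resulting dose-response curve. Abbreviation: GI50, concentration required for 50% inhibition of growth.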 Activity calls are given as the source filed them. No stated cut-off is given here; in the data, active = GI50 up to about 1.1 µM and inactive = higher.

For this assay, the system named is NCI-H322M. The assay is described as follows: growth of human tumour cells (NCI), 48 h.
For the compound `NCCN(CCN)/[N+]([O-])=N/O`, the GI50 was inactive: > 100 µM.

Consider `COc1cc(C(=O)c2cocc2C(=O)c2ccc3c(c2)OCO3)cc(OC)c1OC`, for which the GI50 is inactive: 3 µM.

Take `CN(C)CCCNc1c2c(nc3ccc(Cl)cc13)CCCC2`: the GI50 is inactive: 11.2 µM.

Turning to `CNC1Cc2c[nH]c3cccc(c23)C12C=C(C)C(=O)O2` (centres undefined), the GI50 is inactive: > 100 µM.

Turning to `C=CCCCCOC1C=CC(OC(C)=O)C(COC(C)=O)O1` (centres undefined), the GI50 is inactive: > 100 µM.

Regarding `Cc1nnc2n1N=C(c1ccccc1)/C(=C/c1ccc(-c3ccc(Cl)cc3)o1)S2`, the GI50 was inactive: 16.7 µM.

For `CC12CCC(CC(=O)/C1=C(/Br)I)C2(C)C` (centres undefined), the GI50 was inactive: 18.2 µM.

For the compound `O=P(NCCCO)(OCc1ccccc1)N(CCCl)CCCl` (centres undefined), the GI50 is inactive: > 100 µM.

Consider `COc1cc(C)c(O)c(C(=O)O)c1`, for which the GI50 is inactive: > 100 µM.

For the compound `COc1ccc(C/C=C(\C)CCO)cc1`, the GI50 is inactive: > 100 µM.

On to `Nc1nc(Cl)c(N)c(NCC2(CO)CC(Cc3ccccc3)C2)n1` (centres undefined), for which the GI50 is inactive: > 100 µM.

Turning to `N#Cc1c(N)sc2c1-c1ccccc1OC2`, the GI50 was inactive: 32.1 µM.

Take `C=CCn1c(=S)sc2c(C(=O)OCC)c3c(C)cc(C)cn3c2c1=O`: the GI50 was inactive: > 100 µM.

For `O=C1CC2CCN(C(=O)c3ccccc3)CC2CCN1.O=C1CCC2CC(C(=O)c3ccccc3)CCC2CN1` (centres undefined), the GI50 was inactive: > 100 µM.

As for `COC(=O)c1ccccc1NC(=O)/C(=N\NC(C)(C)C)C(C#N)c1nc(-c2ccc([N+](=O)[O-])cc2)cs1` (centres undefined), the GI50 was inactive: > 100 µM.

For `O=C(O)c1ccc2[nH]c(=O)oc2c1`, the GI50 is inactive: > 100 µM.

In the case of `O=S1(=O)OCCOS(=O)(=O)C1C1c2ccccc2-c2ccccc21`, the GI50 was inactive: 74.5 µM.

In the case of `O=c1[nH]c(NCc2cccnc2)nc2[nH]cnc12`, the GI50 is inactive: > 100 µM.

As for `Cc1csc2nc3c(cnn3C)c(=S)n12`, the GI50 was inactive: > 100 µM.

As to `COc1ccc(-c2cc3cc(Cl)cc(Cl)c3oc2=O)cc1OC`, the GI50 is inactive: 23.6 µM.

Take `COc1cc(C(c2cccc3ccccc23)N2C(=O)CCC2C(=O)O)cc(OC)c1OC` (centres undefined): the GI50 was inactive: > 100 µM.

As for `Cc1ccc(N(C)S(=O)(=O)c2ccccc2)cc1`, the GI50 is inactive: > 100 µM.

Regarding `CC1(Cl)CC2OC3(Br)C=CC(C)(O)C2(CC1Br)C3(C)C` (centres undefined), the GI50 was inactive: > 100 µM.

As to `CC[C@@]1(O)C(=O)OCc2c1cc1n(c2=O)Cc2c-1nc1ccccc1c2/C=N\NC(=O)C(N)CC(C)C` (some centres undefined), the GI50 was active: 0.174 µM.

Turning to `COC(=O)/C=C(\S/C=C(/c1ccccc1)N1CCn2c(C(=O)c3ccccc3)c(C(=O)OC)c(C(=O)OC)c21)C(=O)OC`, the GI50 is inactive: > 10 µM.

Consider `CCOC(=O)C(NC(=O)NCc1ccc(F)cc1)C(F)(F)F` (centres undefined), for which the GI50 was inactive: > 100 µM.

On to `CCNC1=C(NC(=O)c2ccccc2)C(=O)c2ccccc2C1=O`, for which the GI50 was inactive: > 100 µM.

In the case of `O=C1CSC(c2ccc(Cl)cc2)N1c1ccc(-c2ccc(-n3c(-c4ccccc4)nc4ccccc4c3=O)cc2)cc1` (centres undefined), the GI50 is inactive: > 100 µM.

With `Cc1ccsc1/C=N/Nc1cc(C)c2ccccc2n1`, the GI50 is inactive: 18.1 µM.

Take `CC1(C)C(CCO)CC1n1ccc(=O)[nH]c1=O` (centres undefined): the GI50 was inactive: > 100 µM.

As to `O=C1Cc2c(-c3cccs3)cc(-c3ccccc3)nc2-c2ccccc2N1`, the GI50 is inactive: 34.6 µM.

On to `COc1cc2c(cc1OC)C1c3ccccc3C(C#N)(C2)N(C(=O)c2ccccc2)C1O` (centres undefined), for which the GI50 was inactive: > 100 µM.

In the case of `COC[C@H]1C(=O)NCC(=O)N2N=CCC[C@H]2C(=O)N(O)[C@H](C)C(=O)O[C@@H](C(C)C)[C@H](NC(=O)[C@@](C)(O)[C@]2(O)CC[C@@H](CC(C)C)[C@H](C)O2)C(=O)N2NCCC[C@@H]2C(=O)N1O`, the GI50 is active: 0.0196 µM.

On to `CCOC(=O)CN(Cc1ccccc1)Cc1c(C(=O)c2ccccc2)c2ccccc2n1C(=O)c1ccccc1`, for which the GI50 was inactive: > 100 µM.

For the compound `Cc1ccc(/C=N/NS(=O)(=O)c2ccccc2)c(C)c1`, the GI50 was inactive: > 100 µM.

Take `COC(=O)c1sc2ncc3c(c2c1N)CC(C)CC3` (centres undefined): the GI50 is inactive: > 100 µM.

As to `O=C1C2C(C(=O)N1c1ccccc1)C1c3ccccc3C2C2C(=O)N(c3ccccc3)C(=O)C21` (centres undefined), the GI50 is inactive: 3.82 µM.

With `CC(C)=CCC[C@@H](C)C1=C(Nc2ccccc2Cl)C(=O)C(C)=C(O)C1=O`, the GI50 was inactive: 4.57 µM.

Regarding `Cc1ccc(/C=C/C(=O)CCN(C)C)cc1`, the GI50 was inactive: 53.2 µM.

On to `CC1CCC2(C(=O)O)CCC3(C)C(=CCC4C5(C)CC(O)C(O)C(C)(CO)C5C(O)CC43C)C2C1C` (centres undefined), for which the GI50 was inactive: > 90.4 µM.

As to `O=C1CSC2(CC(/C=C/c3ccccc3O)=NN2c2cccc(S(=O)(=O)O)c2)N1c1nc2ccccc2s1` (centres undefined), the GI50 is inactive: 37.2 µM.

Consider `O=C1/C(=C(/Br)I)c2ccccc2-c2ccccc21`, for which the GI50 is inactive: 14.1 µM.

As for `COc1ccc(NC(=O)CSc2nnc(-c3ccc(NC(C)=O)cc3)o2)cc1`, the GI50 was inactive: 16.6 µM.

As to `O=C(/C=C/c1ccc(Cl)c(Cl)c1)CCN1CCN(CCC(=O)/C=C/c2ccc(Cl)c(Cl)c2)CC1`, the GI50 is inactive: 32.2 µM.

Turning to `COC(=O)C1Cc2c(n(Cc3ccccc3)c3ccccc23)C(CCC(=O)O)N1C(C)C` (centres undefined), the GI50 was inactive: > 100 µM.

Consider `CN1C(=O)C2(c3ccccc31)C1CC3C(CO1)C1C2C3(CO)CN1C#N` (centres undefined), for which the GI50 is inactive: > 100 µM.

Turning to `c1cncc(CC2(c3cc4ccccc4[nH]3)OCCO2)c1`, the GI50 is inactive: > 100 µM.

With `O=S(=O)(O)c1ccc2c(/N=N/c3ccc(S(=O)(=O)O)c4ccccc34)c(O)c(S(=O)(=O)O)cc2c1`, the GI50 is inactive: > 100 µM.

As to `C[C@@H]1CC[C@]2(C)C3(C)CC[C@]2(OC3=O)[C@@]12CC(c1ccoc1)OC2=O` (some centres undefined), the GI50 was inactive: > 100 µM.

Turning to `c1ccc(COC[C@H]2O[C@@H](c3ccccc3)C[C@@H](OCc3ccccc3)C2OCc2ccccc2)cc1` (some centres undefined), the GI50 was inactive: > 10 µM.

Take `O=C(O)C1[C@@H](C(=O)O)C1(Br)CBr` (some centres undefined): the GI50 was inactive: > 100 µM.

On to `N#CC(C#N)=C(C(C#N)C#N)C(C#N)C#N`, for which the GI50 is inactive: > 100 µM.

As for `CC(C)=CCC[C@](C)(O[C@@H]1O[C@H](CO)[C@@H](O)[C@H](O)[C@H]1O)[C@H]1CC[C@]2(C)[C@@H]1[C@H](O)C[C@@H]1[C@@]3(C)CC[C@H](O)C(C)(C)[C@@H]3[C@@H](O[C@@H]3O[C@H](CO)[C@@H](O)[C@H](O)[C@H]3O[C@@H]3O[C@@H](C)[C@H](O)[C@@H](O)[C@H]3O)C[C@]12C.CC(C)=CCC[C@](C)(O[C@@H]1O[C@H](CO)[C@@H](O)[C@H](O)[C@H]1O)[C@H]1CC[C@]2(C)[C@@H]1[C@H](O)C[C@@H]1[C@@]3(C)CC[C@H](O)C(C)(C)[C@@H]3[C@@H](O[C@@H]3O[C@H](CO)[C@@H](O)[C@H](O)[C@H]3O[C@@H]3O[C@H](CO)[C@@H](O)[C@H](O)[C@H]3O)C[C@]12C`, the GI50 is inactive: > 75 µM.

Regarding `O=C1C(c2ccc(Cl)cc2)=[N+]([O-])c2ccccc21`, the GI50 was inactive: 25.2 µM.

These data come from ChEMBL document CHEMBL1201862, “PubChem BioAssay data set” (2004).
